Publication PMC4336329 (PLoS ONE, 2015)
The whole screen tested about 310,000 compounds, of which about 14,000 (4.5%) showed an effect of 50% or more. Effects have a minus sign here. The list shows a part of the results.

molecular target: human ether-à-go-go-related gene (hERG) potassium channel (human, UniProt Q12809); experiment: primary screen, population patch clamp on CHO cells stably expressing hERG
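Also: peak tail current of the secondary pulse compared with the same well before compound.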

human ether-à-go-go-related gene (hERG) potassium channel, sequence (Q12809 whole entry, looked up): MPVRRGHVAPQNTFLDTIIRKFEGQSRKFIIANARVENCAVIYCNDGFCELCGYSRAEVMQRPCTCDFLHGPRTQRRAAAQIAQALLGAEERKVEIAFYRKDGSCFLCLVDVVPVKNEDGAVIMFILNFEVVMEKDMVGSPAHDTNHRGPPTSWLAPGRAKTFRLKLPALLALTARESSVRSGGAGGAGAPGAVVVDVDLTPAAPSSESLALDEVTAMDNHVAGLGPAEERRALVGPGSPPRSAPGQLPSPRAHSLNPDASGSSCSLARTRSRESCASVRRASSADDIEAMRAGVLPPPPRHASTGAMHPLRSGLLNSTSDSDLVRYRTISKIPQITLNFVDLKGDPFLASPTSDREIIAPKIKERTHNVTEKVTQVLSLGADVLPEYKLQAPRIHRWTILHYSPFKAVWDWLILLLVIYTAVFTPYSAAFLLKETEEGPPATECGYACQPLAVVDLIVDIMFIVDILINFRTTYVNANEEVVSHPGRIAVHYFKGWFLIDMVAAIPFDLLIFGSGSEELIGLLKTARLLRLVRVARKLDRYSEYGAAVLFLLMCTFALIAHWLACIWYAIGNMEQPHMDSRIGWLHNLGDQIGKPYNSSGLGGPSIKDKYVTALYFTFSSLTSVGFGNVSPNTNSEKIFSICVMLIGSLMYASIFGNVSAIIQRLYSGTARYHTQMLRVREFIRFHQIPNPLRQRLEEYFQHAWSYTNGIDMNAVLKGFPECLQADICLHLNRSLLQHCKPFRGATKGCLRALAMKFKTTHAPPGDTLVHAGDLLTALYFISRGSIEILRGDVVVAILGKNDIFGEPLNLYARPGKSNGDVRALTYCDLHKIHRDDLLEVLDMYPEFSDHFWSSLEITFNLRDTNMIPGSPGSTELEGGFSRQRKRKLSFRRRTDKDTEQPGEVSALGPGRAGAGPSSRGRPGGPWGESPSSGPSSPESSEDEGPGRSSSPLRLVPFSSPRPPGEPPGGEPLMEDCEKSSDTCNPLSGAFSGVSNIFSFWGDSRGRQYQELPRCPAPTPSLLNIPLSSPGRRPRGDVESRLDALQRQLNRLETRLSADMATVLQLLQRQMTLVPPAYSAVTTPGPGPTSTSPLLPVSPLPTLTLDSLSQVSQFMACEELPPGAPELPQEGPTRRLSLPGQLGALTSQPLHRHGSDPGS

Going from O=S(=O)(Nc1ccc2ccccc2n1)c1ccc2c(c1)CCO2 to CN(C)S(=O)(=O)c1ccc(NC(=O)CN2CCc3ccccc32)cc1, the “hERG current change (%, negative = inhibition) at 10uM” value falls from 12.4% to 11.8%.

Going from COc1ccc2nc3c(cc2c1)c(NC(=O)CC(C)C)nn3CC(C)C to COc1ccc2[nH]c(C(=O)NCCCn3ccnc3)cc2c1, the “hERG current change (%, negative = inhibition) at 10uM” value falls from 15.4% to -1.32%.

First: COc1cccc(C(=O)OCC(=O)c2c[nH]c3ccccc23)c1O
Second: COc1ccccc1NC(=O)CC(NCc1ccccc1)C(=O)O (stereo not drawn)
The “hERG current change (%, negative = inhibition) at 10uM” value of the first is higher: 15.3% for the first, 7.4% for the second.

Compared with Cc1cc(C)c(S(=O)(=O)N2CCN(C(=O)CCn3nc(C)c(C)c3C)CC2)c(C)c1, Cc1ccc(-c2ccc(=O)n(CCC(=O)N3CCC4(CC3)OCCO4)n2)cc1 is lower in “hERG current change (%, negative = inhibition) at 10uM” value: -35.8% for the first, -64.5% for the second.

First: COc1ccc(-c2cc3ccc(OCC(N)=O)cc3oc2=O)cc1OC
Second: COc1ccc(C(=O)Nc2nccs2)cc1OC
The “hERG current change (%, negative = inhibition) at 10uM” value of the first is higher: 16.9% for the first, -5.8% for the second.

First: Cc1cc(=O)n2[nH]c(-c3ccc(F)cc3)nc2n1
Second: C/C(=N/Oc1nc(C)cc(C)n1)c1ccc(Br)cc1
The “hERG current change (%, negative = inhibition) at 10uM” value of the first is higher: 14.5% for the first, -26.7% for the second.

First: CNS(=O)(=O)c1cccc(C(=O)OCC(=O)Nc2ccccc2F)c1
Second: O=C(COC(=O)c1cc2ccccc2oc1=O)Nc1ccc(F)cc1F
The “hERG current change (%, negative = inhibition) at 10uM” value of the first is higher: 31.6% for the first, 1.29% for the second.

Compared with O=C(c1ccccc1)N1CCN(C(=O)c2cc3nc(-c4ccccc4)cc(C(F)(F)F)n3n2)CC1, Cc1c(NC(=O)c2cc3nc(-c4ccc(Cl)cc4)cc(C(F)(F)F)n3n2)c(=O)n(-c2ccccc2)n1C is lower in “hERG current change (%, negative = inhibition) at 10uM” value: -51.1% for the first, -55.3% for the second.

Going from Fc1ccc(NC(=S)N2CCc3[nH]c4ccccc4c3C2)cc1 to CCOc1ccc(NC(=O)C2CCCCN2S(=O)(=O)c2ccccc2)cc1 (stereo not drawn), the “hERG current change (%, negative = inhibition) at 10uM” value falls from 6.75% to -16.1%.

First: Cc1c(Cl)c([N+](=O)[O-])nn1Cc1ccc(C(=O)N/N=C\c2cccc(Br)c2)o1
Second: Cc1cccc(CSCc2ccc(C(=O)NC(C)C)o2)c1
The “hERG current change (%, negative = inhibition) at 10uM” value of the first is lower: -38.7% for the first, -8.27% for the second.

First: CCOC(=O)Nc1sc(NS(=O)(=O)c2ccc(C)cc2)nc1C
Second: CCOC(=O)COc1ccc(S(=O)(=O)Nc2cccc(SC)c2)cc1
The “hERG current change (%, negative = inhibition) at 10uM” value of the first is higher: -3.5% for the first, -46.5% for the second.

First: CCOC(=O)Nc1sc(C)c(C)c1C(=O)OCC
Second: CCOC(=O)c1ccc(NC(=S)Nc2ccc(C)cc2)cc1
The “hERG current change (%, negative = inhibition) at 10uM” value of the first is lower: 7.99% for the first, 17.4% for the second.

Going from Cc1ccc2c(c1)C(=O)C(=O)N2CC(=O)Nc1ccccc1NC(=O)c1ccccn1 to Cc1ccc(C(=O)NCCSc2ccc(Cl)cc2)cc1S(=O)(=O)Nc1ccccc1, the “hERG current change (%, negative = inhibition) at 10uM” value rises from 11.4% to 12.9%.

Compared with CCOC(=O)c1cnc(SC)nc1Sc1ccc(Cl)cc1Cl, CC(C)NC(=S)n1cc(C(=O)c2cc(Cl)cc(Cl)c2O)cn1 is higher in “hERG current change (%, negative = inhibition) at 10uM” value: 6.1% for the first, 12.3% for the second.

Going from Cc1ccc(C(=O)C2CN3CCC2CC3)cc1.Cl (stereo not drawn) to CC(=O)c1ccc(NC(=O)C2CCCN2S(=O)(=O)c2ccc(C)cc2)cc1 (stereo not drawn), the “hERG current change (%, negative = inhibition) at 10uM” value rises from -37.4% to -13.5%.

First: CCS(=O)(=O)N1CCN(c2ccccc2F)CC1
Second: O=C(CN1C(=O)c2ccccc2S1(=O)=O)N1CCN(c2ccccc2F)CC1
The “hERG current change (%, negative = inhibition) at 10uM” value of the first is higher: 17.6% for the first, 10.4% for the second.

Going from CCn1cc(C(=O)NCc2ccc3c(c2)OCO3)c(=O)c2cc(F)c(N3CCN(C(=O)c4ccco4)CC3)cc21 to Cn1c(CCC(=O)OCC(=O)NCc2ccc3c(c2)OCO3)nc(=O)c2ccccc21, the “hERG current change (%, negative = inhibition) at 10uM” value rises from -1.93% to 37.8%.

Compared with COc1cc(C(CCN2CCCC2)c2c(OC)cc(OC)c3c(-c4ccccc4)cc(=O)oc23)cc(OC)c1OC (stereo not drawn), COc1ccc(C(CNC(=O)c2cccc(S(=O)(=O)Nc3ccccc3OC)c2)N2CCCC2)cc1 (stereo not drawn) is higher in “hERG current change (%, negative = inhibition) at 10uM” value: -70.8% for the first, -56.6% for the second.

Compared with Cc1ccc(S(=O)(=O)NCCC(=O)OCC(=O)NC(=O)c2cccn2C)cc1, COc1ccc(NS(=O)(=O)c2ccc(C)c(C(=O)NCCCN3CCCC3=O)c2)cc1 is higher in “hERG current change (%, negative = inhibition) at 10uM” value: -12.5% for the first, 2.76% for the second.

Going from COCCn1nnnc1C1(N(Cc2cc3cc(C)ccc3[nH]c2=O)CC2CCCO2)CCN(C)CC1 (stereo not drawn) to O=C(NCC1CCCO1)c1ccc2c(=O)n(CCc3ccccc3)c(=O)[nH]c2c1 (stereo not drawn), the “hERG current change (%, negative = inhibition) at 10uM” value rises from -9.3% to 7.98%.

Compared with Cn1cc(CN2CCC(C(O)c3cccs3)CC2)c(-c2cccc(Cl)c2)n1 (stereo not drawn), Cc1ccc(CN2CCSc3ccc(C(=O)NC4CCN(Cc5ccccc5)CC4)cc32)cc1 is higher in “hERG current change (%, negative = inhibition) at 10uM” value: -57% for the first, 8.21% for the second.

First: S=C(NNc1ccc2ccccc2c1)NC1CCCCC1
Second: O=C(COC(=O)/C=C/c1ccc(OC(F)F)cc1)NC1CCCCC1
The “hERG current change (%, negative = inhibition) at 10uM” value of the first is higher: 18% for the first, 10.5% for the second.

First: CCN(CC)c1ccc2nc3c4ccccc4c(=O)cc-3oc2c1
Second: NS(=O)(=O)c1cccc(NC(=O)c2cc(=O)c3ccccc3o2)c1
The “hERG current change (%, negative = inhibition) at 10uM” value of the first is higher: 23% for the first, 6.18% for the second.

First: CCOc1ccc(C(=O)NCC(=O)NCC(c2ccc(OC)cc2)N2CCOCC2)cc1OCC (stereo not drawn)
Second: COc1ccc(NC(=O)CN(C)C(=O)CCSc2ccc(C)cc2)cc1
The “hERG current change (%, negative = inhibition) at 10uM” value of the first is higher: 6.93% for the first, -31.2% for the second.

Going from Cc1cccc(N2CC(C)Cn3c2nc2c3c(=O)[nH]c(=O)n2C)c1 (stereo not drawn) to Cc1cccc(NC(=O)CSc2nc3nc(C)cc(C)c3c(=O)[nH]2)c1, the “hERG current change (%, negative = inhibition) at 10uM” value rises from -0.757% to 4.65%.

Going from CN1C(=O)N(C)C(=O)C2(Cc3ccccc3N3CCCC32)C1=O (stereo not drawn) to COc1ccc(OC)c(/C=C/C(=O)N2CCCc3ccccc32)c1, the “hERG current change (%, negative = inhibition) at 10uM” value falls from 13.7% to -12.6%.

First: Cc1cccc(Cc2ccc(Cl)nn2)c1
Second: Cc1nc(-c2cccc(Br)c2)ccc1C(=O)O
The “hERG current change (%, negative = inhibition) at 10uM” value of the first is lower: 9.92% for the first, 25.3% for the second.

First: COC(=O)c1ccccc1N(C)S(=O)(=O)c1cc2c(cc1C)OCC(=O)N2
Second: Cc1cc(C)c(S(=O)(=O)c2ccccc2)c(OC(=O)c2c(F)cccc2F)n1
The “hERG current change (%, negative = inhibition) at 10uM” value of the first is higher: -0.885% for the first, -18.9% for the second.

Compared with COc1ccccc1C(=O)Nc1sc2c(c1C#N)CCC2, COc1ccc(C(=O)NC(C)CCc2ccccc2)c(O)c1 (stereo not drawn) is lower in “hERG current change (%, negative = inhibition) at 10uM” value: 26.8% for the first, -55.5% for the second.

Compared with CCN1/C(=C/C(C)=O)Sc2ccc(OC)cc21, CCOC(=O)C1(Cc2cccc(OC)c2)CCN(Cc2csc(C(C)=O)c2)CC1 is lower in “hERG current change (%, negative = inhibition) at 10uM” value: -12.7% for the first, -41.1% for the second.

Compared with CCCCSCCCNC(=O)CS(=O)Cc1nc(-c2cccc(C)c2)oc1C (stereo not drawn), Cc1csc(SCC(=O)Nc2cccc(C)c2C)n1 is higher in “hERG current change (%, negative = inhibition) at 10uM” value: -33.7% for the first, -13.9% for the second.

Going from CCCCn1c(N)c(N(CC(C)C)C(=O)CSc2nnc(-c3ccc(Cl)cc3)o2)c(=O)[nH]c1=O to CCc1ccc(C2=NN(CCC(=O)NC(C)c3ccc4c(c3)OCCO4)C(=O)CC2)cc1 (stereo not drawn), the “hERG current change (%, negative = inhibition) at 10uM” value rises from -17.3% to -15.4%.

Going from CCOc1ccccc1OCCCNCc1ccco1.O=C(O)C(=O)O to CCC(C)(C(=O)NC1CCCC1)N(Cc1ccco1)C(=O)c1ccccn1 (stereo not drawn), the “hERG current change (%, negative = inhibition) at 10uM” value rises from -0.982% to 1.02%.

Going from Cn1cnnc1SCC(=O)c1ccc2c(c1)CCCC2 to COC(=O)C1CCCCN1C(=O)c1cc(COc2cccc3cccnc23)on1 (stereo not drawn), the “hERG current change (%, negative = inhibition) at 10uM” value rises from -5.75% to 5.16%.

First: CCOC(=O)CS(=O)(=O)c1ccccc1
Second: CCCCn1c(N)nc2ccccc21.Cl
The “hERG current change (%, negative = inhibition) at 10uM” value of the first is higher: -3.19% for the first, -8.47% for the second.

Compared with CC(=O)OCC1OC(OC(C)=O)C(NC(=O)Cc2ccccc2)C(OC(C)=O)C1OC(C)=O (stereo not drawn), O=C(NCC(=O)N(c1ccc(F)cc1)C(C(=O)NCC1CCCO1)c1ccccc1)c1ccco1 (stereo not drawn) is higher in “hERG current change (%, negative = inhibition) at 10uM” value: -5.33% for the first, -3.58% for the second.

Going from CCOc1cc(/C=N/NC(=O)C(=O)NC2CC2)cc(Br)c1O to CCOC(=O)N1CCN(C(=O)c2cc3cc(Br)ccc3oc2=O)CC1, the “hERG current change (%, negative = inhibition) at 10uM” value falls from 6.42% to -17.7%.

First: O=C(C1CCC(=O)N1C1CCCCC1)N1CCC2(CC1)OCCO2 (stereo not drawn)
Second: O=C(Cn1c(=O)[nH]c2sc3c(c2c1=O)CCCC3)NCC1CCCO1 (stereo not drawn)
The “hERG current change (%, negative = inhibition) at 10uM” value of the first is lower: 7.41% for the first, 20% for the second.

Compared with CC(=O)c1ccc(S(=O)(=O)NC2CC(=O)N(c3ccc(Cl)cc3)C2)cc1 (stereo not drawn), Cc1ccc(C(=O)c2c3ccc([N+](=O)[O-])cc3[n+]([O-])n2CCC(N)=O)cc1 is higher in “hERG current change (%, negative = inhibition) at 10uM” value: -34.8% for the first, -32.6% for the second.

First: CC1(C)CC(=O)/C(=C(\O)c2ccccc2)C(=NCCO)C1
Second: O=C(/C=C/c1cccs1)NC(=S)NNC(=O)c1ccccc1O
The “hERG current change (%, negative = inhibition) at 10uM” value of the first is lower: 8.54% for the first, 27% for the second.

Compared with O=C(Cc1ccc(Cl)cc1)NCC(=O)N1CCCCC1, O=C(COC(=O)c1ccc(F)cc1F)Nc1cccnc1Cl is lower in “hERG current change (%, negative = inhibition) at 10uM” value: 0.346% for the first, -56.3% for the second.

Going from Cc1nc(-c2ccc(Cl)cc2)sc1C1(C)CC(c2ccccc2Br)=NO1 (stereo not drawn) to O=C(Nc1c(Cl)cc(Cl)cc1-c1nc2ccccc2s1)c1ccc(Br)o1, the “hERG current change (%, negative = inhibition) at 10uM” value falls from 13.8% to 1.46%.

Going from Cc1ccsc1C(=O)N(c1nc2ccccc2s1)c1c(C)cccc1C to Cc1ccccc1-n1c(=O)c2c(n3cnnc13)-c1ccccc1CC21CCCCC1, the “hERG current change (%, negative = inhibition) at 10uM” value falls from 30.3% to -9.87%.

With CCC1C2CN(C(C)=O)CC=C2C(C#N)=C(N)C1(C#N)C#N (stereo not drawn) the “hERG current change (%, negative = inhibition) at 10uM” value was 5.66%.
